In all, about 310,000 compounds went through this assay and about 14,000 (4.5%) showed an effect of 50% or more. Effects have a minus sign here. This is one part of the list.
Target: human ether-à-go-go-related gene (hERG) potassium channel (human, UniProt Q12809)
Assay: primary screen, population patch clamp on CHO cells stably expressing hERG
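Also: peak tail current of the secondary pulse compared with the same well before compound.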

Sequence of human ether-à-go-go-related gene (hERG) potassium channel (Q12809 whole entry, looked up): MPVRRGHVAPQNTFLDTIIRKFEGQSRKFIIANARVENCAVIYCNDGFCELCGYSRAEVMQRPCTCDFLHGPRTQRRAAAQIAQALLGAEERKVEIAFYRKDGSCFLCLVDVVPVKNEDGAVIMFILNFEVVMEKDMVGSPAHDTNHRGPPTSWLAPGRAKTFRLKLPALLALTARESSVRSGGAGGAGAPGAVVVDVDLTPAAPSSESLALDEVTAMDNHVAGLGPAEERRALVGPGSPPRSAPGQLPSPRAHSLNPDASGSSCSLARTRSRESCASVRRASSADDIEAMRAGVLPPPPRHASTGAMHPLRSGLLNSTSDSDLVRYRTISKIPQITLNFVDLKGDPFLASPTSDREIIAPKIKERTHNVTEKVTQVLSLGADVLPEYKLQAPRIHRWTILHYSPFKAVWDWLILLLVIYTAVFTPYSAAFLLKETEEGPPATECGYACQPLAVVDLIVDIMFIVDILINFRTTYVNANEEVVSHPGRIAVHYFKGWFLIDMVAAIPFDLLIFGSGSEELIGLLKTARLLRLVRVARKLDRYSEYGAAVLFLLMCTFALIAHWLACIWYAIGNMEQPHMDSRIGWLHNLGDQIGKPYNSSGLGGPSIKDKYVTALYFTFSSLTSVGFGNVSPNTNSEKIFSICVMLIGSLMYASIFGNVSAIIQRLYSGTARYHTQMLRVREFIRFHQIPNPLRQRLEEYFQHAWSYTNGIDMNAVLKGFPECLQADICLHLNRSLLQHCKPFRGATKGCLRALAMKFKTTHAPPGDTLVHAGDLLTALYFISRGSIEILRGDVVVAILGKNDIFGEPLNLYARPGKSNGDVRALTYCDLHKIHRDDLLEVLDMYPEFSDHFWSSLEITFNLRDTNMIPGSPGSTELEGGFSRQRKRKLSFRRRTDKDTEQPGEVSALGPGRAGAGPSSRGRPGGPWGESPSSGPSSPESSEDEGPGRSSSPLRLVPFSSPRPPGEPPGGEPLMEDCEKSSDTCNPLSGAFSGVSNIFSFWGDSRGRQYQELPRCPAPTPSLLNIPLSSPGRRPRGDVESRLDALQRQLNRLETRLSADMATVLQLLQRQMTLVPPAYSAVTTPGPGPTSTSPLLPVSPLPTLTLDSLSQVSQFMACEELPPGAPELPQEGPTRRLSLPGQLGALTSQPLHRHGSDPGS

SMILES | hERG current change (%, negative = inhibition) at 10uM
CC(C)c1csc(CN2CCC(CO)(Cc3cccc(F)c3)CC2)n1 | -17.3%
CCCOC(=O)NC1C(NC(=O)OCCC)N(C)C(=O)N1C (stereo not shown) | 10.2%
O=C(NCCCn1ccnc1)C(=O)NCc1ccc(Cl)cc1 | -32.5%
CCC(Sc1nc(C)cc(=O)[nH]1)C(=O)Nc1nnc(C)s1 (stereo not shown) | 18.3%
CCN(CC(=O)Nc1c(F)cccc1F)C(=O)c1cc(S(=O)(=O)N2CCOCC2)ccc1N1CCCC1 | -9.2%
CCOC(=O)C1=C(C)NC(C)=C(C(=O)OCC)C1c1cn(-c2ccccc2)nc1-c1ccco1 | -1.05%
CCCCC(CC)CNCC(O)c1ccccc1 (stereo not shown) | 9.27%
Cc1cc(C(=O)CN2CC(C)OC(C)C2)c(C)n1-c1ccccc1 (stereo not shown) | 9.82%
Cc1ccc(OCCn2cnc3cc([N+](=O)[O-])ccc3c2=O)cc1 | -8.19%
CN(Cc1c(C(=O)N2CCCCCCC2)nc2ccc(Cl)cn12)C1CCOC1 (stereo not shown) | 35.4%
COc1ccc(NC(=O)CSc2nc3ccccc3c(=O)n2CCC(=O)N2CCCCC2)cc1 | -69.2%
CN=C(Nc1cccnc1)c1cccc(C(F)(F)F)c1 | 7.21%
CC(C)(C)C1CCC(C(=O)Nc2ccc(N3CCOCC3)cc2N2CCOCC2)CC1 (stereo not shown) | -47.5%
Cc1cccc(C)c1NC(=O)C1c2ccccc2Oc2ccccc21 | 10.9%
COC(=O)c1ccc(S(=O)(=O)NCc2ccc(S(N)(=O)=O)cc2)n1C | 15%
O=C(NCC1CCCO1)c1cc(-c2ccncc2)nc2ccc(S(=O)(=O)N3CCOCC3)cc12 (stereo not shown) | -24.5%
CCOC(=O)[C@H]1[C@H]2COc3ccccc3[C@@H]2N2C(=O)c3cc(OC)c(OC)cc3NC(=O)[C@@]12C | -12%
CCOCCn1c(SCc2ccccc2)nc2c1c(=O)[nH]c(=O)n2C | -14.9%
COC(=O)C1=C(C)N(CCc2c[nH]c3ccc(OC)cc23)C(=O)C1 | 8.98%
Cc1nn(C)c(C)c1CN(C)C(=O)c1cc2n(n1)C(C(F)(F)F)CC(c1cccs1)N2 (stereo not shown) | -2.89%
CCCCNC(=O)/C(=C\c1ccc([N+](=O)[O-])o1)NC(=O)c1ccccc1 | -39.8%
COc1ccc(-c2noc(N3CCC(C(=O)N(C)c4ccccc4C)CC3)n2)cc1 | -33.5%

SMILES | hERG current change (%, negative = inhibition) at 10uM
CCOC(=O)c1cc(S(=O)(=O)NCc2ccc3c(c2)OCO3)cn1C | -11.4%
CCN(CC)S(=O)(=O)c1ccc(/C=C/C(=O)OCC(=O)N(C(C)C)C(C)C)cc1 | 13.7%
COc1cccc(NC(=O)CN2C(=O)CSc3ccc(S(=O)(=O)N4CCOCC4)cc32)c1 | 6.36%
COC(=O)C1=CN(CCOC23CC4CC(CC(C4)C2)C3)C=C(C(=O)OC)C1c1ccsc1 | 10%
CCc1nnc(NC(=O)c2ccc(S(=O)(=O)N(CCOC)CCOC)cc2)s1 | 9.67%
CCc1ccc(NC(=O)Cn2c(=O)n(CCC(=O)NC3CCN(Cc4ccccc4)CC3)c(=O)c3ccccc32)cc1 | 1.83%
CC(C)OC(=O)CC(NC(=O)OC(C)(C)C)c1ccccc1 (stereo not shown) | 2.7%
CN(C)CCNC(=O)c1cccn(Cc2cccc(C(F)(F)F)c2)c1=O | -9.82%
COc1ccccc1NC(=O)C(C)Sc1nc2ccccc2c(=O)n1CC1CCCO1 (stereo not shown) | -37.2%
CC(C)c1ccc(OCC(=O)NCc2ccco2)cc1 | -10.3%
COc1cc(SC)ccc1C(=O)NCCOc1ccc(F)cc1 | -26.8%
CC1CCN(C(=O)CCNS(=O)(=O)c2ccc(Cl)cc2)CC1 | -8.45%
Cc1ccc(S(=O)(=O)N2CCN(C(=O)N3CCOCC3)CC2)cc1C | 6.89%
S=C1NC2CCCCC2N1 (stereo not shown) | 26.5%
COc1ccccc1C(=O)NCCC(=O)NCCCSc1ccccc1 | -17.7%
Nc1nc(-c2ccc(Cl)cc2)cc(C(F)(F)F)n1 | 13.1%
COc1ccc2c(CC(=O)Nc3ccc(N4CCOCC4)cc3)coc2c1 | 15%
Cc1cccc(NC(=O)CSc2nnc([C@@H](N)Cc3c[nH]c4ccccc34)o2)c1C.Cl | -11.4%
Cc1cc(N=Nc2ccccc2)c(NCC(O)C(O)C(O)CO)cc1C (stereo not shown) | -24.1%
N/C(Cc1ccc([N+](=O)[O-])cc1)=N\OC(=O)Cc1ccccc1 | -50.7%
Cc1ccc(C2CC(c3ccc(Br)cc3)=NN2C(=O)CSC2=NN3CCCC(=O)N=C3S2)cc1 (stereo not shown) | 17.1%

Source: PMC4336329 (PLoS ONE, 2015)
